# Reference: the supplement of paper PMC9135407
# “And” between values parts separate entries of the source, which are not always exact repeats. Equal entries are not always repeated. Structures can show the parent of a compound that is named as a salt. Out of some 5,800 compounds screened, about 620 (11%) showed activity.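 How the source made its calls: active = score above a cut-off or among the top three wells of a plate; in these data no inactive exceeds 0.85.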 The entries are a selection whose mix differs from that of the whole data set.
# Tested on: primary human hepatic stellate cells (donor 1)
# Test: scaled lipid accumulation score (0 = DMSO-like, 1 = nortriptyline-like); higher = stronger HSC inactivation (lipid re-accumulation), active = hit call of the paper
# Details: 48 h
# [1] = library stock concentration: 10 mM
# [2] = library stock concentration: 1 mM
# [3] = library stock concentration: 3.33 mM
# [4] = library stock concentration: 80 uM
# [5] = library stock concentration: 400 uM
# [6] = library stock concentration: 2 mM
structure (smiles),measurement,setting,value
NC1=NCC2c3ccccc3Cc3ccccc3N12 (configuration not stated) [Epinastine hydrochloride],scaled lipid accumulation score,[1],inactive: 0.592
CCCCC[C@H](O)/C=C/[C@H]1OC(O)C[C@H](O)[C@@H]1C/C=C\CCCC(=O)O (some centres not stated) [Thromboxane B2],scaled lipid accumulation score,[2],inactive: ≤ 0
NC(=O)N1c2ccccc2CC(=O)c2ccccc21 [Oxcarbazepine],scaled lipid accumulation score,[3],inactive: ≤ 0
same,scaled lipid accumulation score,library stock concentration: 7.9 mM,inactive: ≤ 0
same,scaled lipid accumulation score,[1],inactive: ≤ 0 and inactive: ≤ -0.027
NC(=O)N1c2ccccc2CC(=O)c2ccccc21 [Trileptal],scaled lipid accumulation score,[1],inactive: ≤ 0
Cc1nc2ccc(NC(=O)Nc3ccnc4cccnc34)cc2o1,scaled lipid accumulation score,[1],inactive: ≤ -0.006
Oc1nc(-c2ccc(C(F)(F)F)cc2)nc2c1CSCC2,scaled lipid accumulation score,[2],inactive: ≤ 0
same,scaled lipid accumulation score,[3],inactive: ≤ 0
same,scaled lipid accumulation score,[1],inactive: ≤ 0 and inactive: 0.004
O=C(c1ccc(Nc2nccc(-c3cc4ccccc4s3)n2)cc1)N1CCC(N2CCCC2)CC1 [IKK-16 (IKK Inhibitor VII)],scaled lipid accumulation score,[3],active: 1.04
CC(C)Cn1cnc2c(N)nc3ccccc3c21 [Imiquimod],scaled lipid accumulation score,library stock concentration: 8.3 mM,inactive: ≤ 0
"O=C(O)C=Cc1cc(Br)c(Br)c(Br)c1Br [Casein Kinase II Inhibitor III, TBCA]",scaled lipid accumulation score,[3],inactive: ≤ 0
CC(=O)OCC(=O)[C@@]1(O)[C@H](OC(C)=O)C[C@H]2[C@@H]3CCC4=CC(=O)C=C[C@]4(C)[C@@]3(F)[C@@H](O)C[C@@]21C [Triamcinolone diacetate],scaled lipid accumulation score,[1],inactive: ≤ 0
O=C1Nc2ccc(I)cc2/C1=C/c1cc(Br)c(O)c(Br)c1,scaled lipid accumulation score,[4],inactive: ≤ 0
same,scaled lipid accumulation score,[5],inactive: ≤ 0
same,scaled lipid accumulation score,[6],inactive: 0.042
same,scaled lipid accumulation score,library stock concentration: 9.6 mM,inactive: 0.046
same,scaled lipid accumulation score,[1],inactive: 0.225 and inactive: ≤ 0 and inactive: ≤ -0.006
O=C1N=C(O)NC1(c1ccccc1)c1ccccc1 [Phenytoin sodium],scaled lipid accumulation score,[3],inactive: ≤ 0
same,scaled lipid accumulation score,library stock concentration: 7.3 mM,inactive: ≤ -0.001
same,scaled lipid accumulation score,[1],inactive: ≤ 0 and inactive: 0.012
O=c1onc2cnc3ccccc3n12,scaled lipid accumulation score,[1],active: 1.01
CN(C)CCC=C1c2ccccc2C=Cc2ccccc21.Cl [Cyclobenzaprine HCl],scaled lipid accumulation score,[3],active: 0.507
COc1cc(NS(=O)(=O)c2ccc(N)cc2)nc(OC)n1 [Sulfadimethoxine],scaled lipid accumulation score,,inactive: 0.008
same,scaled lipid accumulation score,library stock concentration: 6.4 mM,inactive: ≤ 0
same,scaled lipid accumulation score,[1],inactive: ≤ 0
COc1cc(NS(=O)(=O)c2ccc(N)cc2)nc(OC)n1 [Sulphadimethoxine],scaled lipid accumulation score,[3],inactive: ≤ 0
same,scaled lipid accumulation score,[1],inactive: ≤ 0
CC[N+](CC)(CC(=O)Nc1c(C)cccc1C)Cc1ccccc1 [Denatonium benzoate],scaled lipid accumulation score,,inactive: ≤ 0
same,scaled lipid accumulation score,library stock concentration: 4.5 mM,inactive: ≤ 0
CC1(C)O[C@@H]2[C@@H](CO[C@@]3(COS(N)(=O)=O)OC(C)(C)O[C@@H]23)O1,scaled lipid accumulation score,[1],inactive: ≤ 0
CC1(C)O[C@@H]2[C@@H](CO[C@@]3(COS(N)(=O)=O)OC(C)(C)O[C@@H]23)O1 [Topiramate],scaled lipid accumulation score,[3],inactive: 0.132
same,scaled lipid accumulation score,library stock concentration: 5.9 mM,inactive: ≤ 0
same,scaled lipid accumulation score,[1],inactive: ≤ 0 and inactive: ≤ -0.027 and inactive: 0.005
COc1cc2ccc(=O)oc2cc1O [Scopoletin],scaled lipid accumulation score,,inactive: ≤ 0
same,scaled lipid accumulation score,[1],inactive: ≤ 0
NCCC(=O)NCCc1c[nH]cn1 [Carcinine],scaled lipid accumulation score,,inactive: 0.074
CN(C)c1cc(NC(=O)CNC(C)(C)C)c(O)c2c1C[C@H]1C[C@H]3[C@H](N(C)C)C(O)=C(C(N)=O)C(=O)[C@@]3(O)C(O)=C1C2=O,scaled lipid accumulation score,[1],inactive: ≤ 0
CCNc1nc(Nc2cc(F)c(C(=O)N3CCOCC3)cc2OC)ncc1C(F)(F)F,scaled lipid accumulation score,[4],inactive: ≤ -0.001
same,scaled lipid accumulation score,[5],inactive: ≤ -0.001
same,scaled lipid accumulation score,[6],inactive: ≤ -0.001
same,scaled lipid accumulation score,[3],inactive: ≤ -0.009
same,scaled lipid accumulation score,[1],inactive: ≤ 0 and inactive: ≤ -0.001
Cc1cccc(Nc2ccncc2S(=O)(=O)NC(=O)NC(C)C)c1 [Torsemide],scaled lipid accumulation score,,inactive: ≤ 0
same,scaled lipid accumulation score,[1],inactive: ≤ -0.027
Cc1cccc(Nc2ccncc2S(=O)(=O)NC(=O)NC(C)C)c1,scaled lipid accumulation score,library stock concentration: 9.9 mM,inactive: ≤ 0
COc1cc2c(cc1OC)-c1c/c(=N\c3c(C)cc(C)cc3C)n(C)c(=O)n1CC2 [Trequinsin],scaled lipid accumulation score,library stock concentration: 4.9 mM,inactive: 0.164
same,scaled lipid accumulation score,library stock concentration: 12.3 mM,inactive: 0.244
COc1cc2c(cc1OC)-c1c/c(=N\c3c(C)cc(C)cc3C)n(C)c(=O)n1CC2 [Trequinsin hydrochloride],scaled lipid accumulation score,[1],inactive: 0.494 and inactive: 0.174
O=C(O)CCCC[C@@H]1CCSS1 [Thioctic acid],scaled lipid accumulation score,[1],inactive: ≤ -0.027
COc1ccc(-c2nc3cc(F)ccc3s2)cc1OC,scaled lipid accumulation score,[2],inactive: ≤ 0
